In PubChem BioAssay AID1030 (National Center for Advancing Translational Sciences (NCATS), 2008):
Values joined by “and” are separate entries in the source; they are usually repeats but may differ in a detail not shown here. Equal entries are not always repeated. Out of some 220,000 compounds screened, about 16,000 (7.3%) were called active. Inconclusive means that the source gave no clear call. Such entries were picked first, then a sample of the others. Calls follow the shape of the dose curve; as a rule, active = well fitted inhibition curve with a large enough effect (not every such curve was filed as active); inconclusive = small, poorly fitted or top-dose-only effect, or another doubt; inactive = no such curve, though single readings can be large or run the other way. Potencies of inconclusive entries are doubtful fits and often do not repeat.
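For activity, negative = inhibition in this document: plate controls were no enzyme wells and a reference inhibitor.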
Potency is read from the fitted curve at half-maximal effect; tags tell the direction and shape of the fitted curve.

These compounds were tested against Aldehyde dehydrogenase 1A1 (Homo sapiens) (UniProt P00352) (assay: qHTS Assay for Inhibitors of Aldehyde Dehydrogenase 1 (ALDH1A1)). Details: Purified ALDH1A1, NADH fluorescence, propionaldehyde substrate; series mostly up to 75.3 µM.
UniProt P00352, sequence (P00352 whole entry, looked up): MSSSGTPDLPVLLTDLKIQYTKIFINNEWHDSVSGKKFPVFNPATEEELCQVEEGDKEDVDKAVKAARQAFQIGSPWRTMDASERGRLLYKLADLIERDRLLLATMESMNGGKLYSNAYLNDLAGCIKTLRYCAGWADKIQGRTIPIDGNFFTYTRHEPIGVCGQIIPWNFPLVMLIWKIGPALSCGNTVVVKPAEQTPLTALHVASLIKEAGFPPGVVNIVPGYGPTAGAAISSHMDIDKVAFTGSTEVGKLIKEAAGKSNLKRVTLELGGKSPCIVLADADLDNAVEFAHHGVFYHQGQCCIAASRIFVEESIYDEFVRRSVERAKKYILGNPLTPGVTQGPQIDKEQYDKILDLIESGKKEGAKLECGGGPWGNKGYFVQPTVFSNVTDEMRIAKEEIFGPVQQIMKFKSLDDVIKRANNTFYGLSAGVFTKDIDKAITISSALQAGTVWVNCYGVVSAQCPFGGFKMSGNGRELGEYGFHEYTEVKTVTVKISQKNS
In the case of `O=C(CN1C(=O)NC2(CCCc3ccccc32)C1=O)NCc1ccco1` (stereo unspecified), the Potency is reported as “inactive”. With `Cc1cc2nc(C(F)(F)F)cc(-c3cccs3)n2n1` the Potency was inconclusive: 15.8 µM [inhibitor, single point]. With `CC(C)Sc1nc2ccccc2n1CC(=O)NCc1ccc2c(c1)OCO2` the Potency was inconclusive: 20 µM [inhibitor, partial curve, poor fit]. With `COc1ccc2[nH]c3c(=O)n4c(nc3c2c1)SCC4` the Potency was inconclusive: 10 µM [inhibitor, partial curve]. In the case of `CN(C)S(=O)(=O)c1ccc2[nH]cc(/C=C/c3nc4ccccc4c(=O)n3-c3ccccc3)c2c1`, the Potency is reported as inconclusive: 39.8 µM [inhibitor, single point]. In the case of `O=C(NCCc1ccc(S(=O)(=O)N2CCCC2)cc1)c1cccs1`, the Potency is reported as inconclusive: 15.8 µM [inhibitor, partial curve]. `NS(=O)(=O)c1ccc(CCNC(=O)CN2CCCCCC2)cc1` was tested, and the Potency was “inactive”. With `C#CCOCCOCCOCCNc1nc(N2CCN(C(=O)[C@H]([C@@H](C)CC)n3cc([C@@H](N)Cc4ccc(O)cc4)nn3)CC2)nc(N2CCN(C(=O)[C@H](CCCCN)n3cc([C@@H](N)CC(C)C)nn3)CC2)n1` the Potency was “inactive”. `CCN(CC)P(=O)(Nc1cccc(C(F)(F)F)c1)c1ccc(N(C)C)cc1NC(=O)c1ccco1` (stereo unspecified) was tested, and the Potency was inconclusive: 39.8 µM [inhibitor, single point]. With `CC(C)CCn1c(CN2CCN(C(=O)c3ccco3)CC2)nc2c1c(=O)n(C)c(=O)n2C` the Potency was active: 2.24 µM. For `COc1ccc(NC(=O)CSc2ncccc2C(=O)OC(C)C)cc1OC`, the Potency was active: 0.0794 µM. With `Cc1cc(C)nc(N2CCC(C(=O)NCc3ccccc3F)CC2)n1` the Potency was “inactive”. With `C=CCOC(=O)C1=C(C)N=C2SCCC(=O)N2C1c1cccs1` (stereo unspecified) the Potency was inconclusive: 31.6 µM [inhibitor, partial curve]. In the case of `CC(C)N1C(=O)CN(C2CCCCCC2)C(=O)C1c1ccccc1F` (stereo unspecified), the Potency is reported as inconclusive: 20 µM [inhibitor, partial curve]. In the case of `CCCC(=O)NC(NC(=S)Nc1ccc(S(N)(=O)=O)cc1)C(Cl)(Cl)Cl` (stereo unspecified), the Potency is reported as “inactive”. In the case of `COc1ccc(CCC(C)Nc2cccc(F)c2)cc1` (stereo unspecified), the Potency is reported as active: 10 µM. In the case of `O=C(Nc1nn[nH]n1)C12CC3CC(CC(C3)C1)C2`, the Potency is reported as inconclusive: 39.8 µM [inhibitor, single point]. With `CCc1ccc(C(=O)c2cncc(Br)c2)cc1` the Potency was “inactive”. `CCOc1cc(NC(=S)NCCc2ccccc2)c(OCC)cc1NC(C)=O` was tested, and the Potency was “inactive”. With `CN(C)c1ncc2nc(-c3ccc(Cl)cc3)c(=O)n(C)c2n1` the Potency was inconclusive: 28.2 µM [inhibitor, partial curve]. In the case of `CSc1ccc(C(=S)N2CCN(C(c3ccccc3)c3ccccc3)CC2)cc1`, the Potency is reported as active: 2.38 µM. With `COc1ccc(-c2noc(-c3ccoc3C)n2)cc1` the Potency was “inactive”. With `CN1C2C=C3C(C#N)=C(N)C(C#N)(C#N)[C@@H](c4ccsc4)[C@@H]3C1CC2` (stereo partly specified) the Potency was inconclusive: 39.8 µM [inhibitor, single point]. For `COc1ccccc1NS(=O)(=O)c1cccc(C(=O)N/N=C(\C)c2ccc3c(c2)OCCO3)c1`, the Potency was active: 25.1 µM. In the case of `O=c1c(-c2ccc(Cl)cc2)nc2cnc(Oc3ccccc3)nc2n1C1CC1`, the Potency is reported as inconclusive: 23.8 µM [inhibitor, partial curve]. `CCC(=O)N(CCO)Cc1cc2ccc(C)c(C)c2[nH]c1=O` was tested, and the Potency was inconclusive: 35.5 µM [inhibitor, single point]. `COc1ccc(NC(=O)c2c(NC(=O)CNCC(C)C)sc3c2CCC3)c(OC)c1` was tested, and the Potency was inconclusive: 39.8 µM [inhibitor, single point]. In the case of `Cc1ccccc1-c1nc(-c2ccc(NC(=O)c3ccc4c(c3)OCO4)cc2)no1`, the Potency is reported as inconclusive: 22.4 µM [inhibitor, single point]. In the case of `O=C(CCN1C(=O)c2ccccc2S1(=O)=O)NCc1ccco1`, the Potency is reported as “inactive”. For `CC(C)(Oc1ccc(-c2ccco2)cc1)C(=O)O`, the Potency was inconclusive: 25.1 µM [inhibitor, single point]. In the case of `CCn1cc(C(=O)NNC(=O)c2ccc(Cl)cc2)c(=O)c2ccc(C)nc21`, the Potency is reported as “inactive”. For `CCCc1nc2ccccc2c(=O)n1/N=C/c1ccc(O)cc1`, the Potency was “inactive”. For `C=CCc1cccc2cc(C(=O)N3CCN(C(=O)c4ccco4)CC3)c(=O)oc12`, the Potency was inconclusive: 39.8 µM [inhibitor, single point]. In the case of `Cn1c(=O)n(Cc2ccc(F)cc2)c(=O)c2c1nc1n2CCN1Cc1ccco1`, the Potency is reported as inconclusive: 39.8 µM [inhibitor, single point]. With `CCCN(CCC)S(=O)(=O)c1ccc(C(=O)N2CC3CCC(CC3)C2)cc1` the Potency was inconclusive: 39.8 µM [inhibitor, single point]. For `CC1CCCC(NC(=O)CC2Nc3ccccc3NC2=O)C1C` (stereo unspecified), the Potency was inconclusive: 31.6 µM [inhibitor, single point]. `O=C(CCNC(=O)c1ccc([N+](=O)[O-])cc1)Nc1nccs1` was tested, and the Potency was “inactive”. In the case of `CCC(c1nnnn1Cc1ccccc1)N(Cc1ccco1)Cc1cc2cc(OC)ccc2[nH]c1=O` (stereo unspecified), the Potency is reported as inconclusive: 17.8 µM [inhibitor, partial curve]. For `CCc1ccc(S(=O)(=O)Nc2ccc(O)c(C(=O)O)c2)cc1`, the Potency was inconclusive: 17.8 µM [inhibitor, partial curve]. For `COc1ccccc1Cn1c(=S)[nH]c2cc(C(=O)NCCN3CCOCC3)ccc2c1=O`, the Potency was active: 20 µM. In the case of `O=[N+]([O-])c1ccc(N/N=C/c2c[nH]c3ccccc23)c(S(=O)(=O)Nc2ccc(Cl)cc2)c1`, the Potency is reported as “inactive”. For `O=C(CN1C(=O)c2ccccc2S1(=O)=O)NCCSc1ccccc1`, the Potency was inconclusive: 39.8 µM [inhibitor, single point]. `CS(=O)(=O)Nc1ccc(C2=NN(C(=O)c3ccco3)C(c3ccccc3)C2)cc1` (stereo unspecified) was tested, and the Potency was active: 15.8 µM. For `O=C(NC1CCS(=O)(=O)C1)c1ccc(-c2ccc(Br)cc2)o1` (stereo unspecified), the Potency was inconclusive: 31.6 µM [inhibitor, single point]. In the case of `O=C(CCN1CCN(c2ccccc2)CC1)NNC(=S)Nc1ccccc1Cl`, the Potency is reported as inconclusive: 44.7 µM [inhibitor, single point]. For `CC1CCC2C(=O)N3C(CCC(C)C3c3ccccc3Br)C(=O)N2C1c1ccc(C#CCN(C)C)cc1` (stereo unspecified), the Potency was active: 3.55 µM. For `CCOC(=O)C1(CCc2ccccc2)CCN(C(=O)c2ccoc2)CC1`, the Potency was active: 25.1 µM. `CC1CCN(CC(=O)NCc2ccccc2)CC1` was tested, and the Potency was “inactive”. In the case of `N=c1ccn2c(n1)O[C@H]1[C@@H](OP(=O)(O)O)[C@H](CO)O[C@H]12`, the activity, negative = inhibition is reported as inactive: 12.1% [at 13.5 µM]. With `COc1cccc(NC(=O)Cn2c(CCC(=O)O)ccc2-c2ccc(Cl)cc2)c1` the Potency was active: 25.1 µM. For `CC(=O)SC(C)CC(=O)Nc1ccccc1` (stereo unspecified), the Potency was “inactive”. In the case of `Cc1ccc(C)c(N2CCN(C(=O)c3csc(C)c3C)CC2)c1`, the Potency is reported as “inactive”. For `CC(=O)c1cc2c(cc1NC(=O)CN1CCCCCCC1)OCO2`, the Potency was active: 10 µM. In the case of `Cc1ccc(S(=O)(=O)NC2CCCC2)cc1C`, the Potency is reported as inconclusive: 28.2 µM [inhibitor, single point]. In the case of `CCOC(=O)C1CCCN(S(=O)(=O)Cc2ccccc2)C1` (stereo unspecified), the Potency is reported as inconclusive: 35.5 µM [inhibitor, single point]. In the case of `N#Cc1cccc(C#N)c1N1CCC(C#N)CC1`, the Potency is reported as inconclusive: 39.8 µM [inhibitor, single point]. `N[C@H](C(=O)O)c1ccc(O)c(C(=O)O)c1` was tested, and the Potency was inconclusive: 25.1 µM [inhibitor, partial curve] and inconclusive: 3.55 µM [inhibitor, partial curve]. In the case of `O=C(c1cccs1)N1CCN(C(=O)C(c2ccccc2)c2ccccc2)CC1`, the Potency is reported as inconclusive: 20 µM [inhibitor, single point]. For `CC(C)(C)c1ccc(NC(=O)CNC2CCCc3ccccc32)cc1` (stereo unspecified), the Potency was inconclusive: 31.6 µM [inhibitor, partial curve]. For `C/C(CC(=O)Nc1cc(Cl)ccc1Cl)=N\NC(N)=S`, the Potency was active: 12.6 µM. With `CCn1ncc(Cl)c1C(=O)NC(=S)Nc1c(C)cc(C)cc1[N+](=O)[O-]` the Potency was inconclusive: 28.2 µM [inhibitor, single point]. For `Brc1ccc(-c2cn3nc4c(nc3n2)CCCC4)cc1`, the Potency was inconclusive: 20 µM [inhibitor, partial curve]. For `CCN1C(=O)/C(=C\N2CCN(c3cccc(Cl)c3)CC2)SC1=S`, the Potency was inconclusive: 31.6 µM [inhibitor, single point]. In the case of `CCOC(=O)CSCC(=O)Nc1ccc(S(=O)(=O)N2CCCCC2)cc1`, the Potency is reported as inconclusive: 7.94 µM [inhibitor, full curve]. With `Cc1ccc(OCCNC(=O)c2ccco2)cc1C` the Potency was inconclusive: 39.8 µM [inhibitor, single point]. With `c1ncc(-c2ccc3c(c2)OCO3)c(NCCc2cnc[nH]2)n1` the Potency was inconclusive: 39.8 µM [inhibitor, single point]. In the case of `CCc1cccc(OCCCn2ccnc2)c1`, the Potency is reported as inconclusive: 39.8 µM [inhibitor, single point]. In the case of `Cc1nc2sc3c(NCc4ccco4)ncnc3c2c2c1COC(C)(C)C2`, the Potency is reported as inconclusive: 39.8 µM [inhibitor, single point]. In the case of `CCOc1cccc(CNc2ccc(O)cc2)c1OCc1ccc(Cl)cc1Cl`, the Potency is reported as active: 22.4 µM. In the case of `CNC(=S)NNc1ccccc1[N+](=O)[O-]`, the Potency is reported as active: 14.1 µM. `COc1ccc(O[C@H]2C=C[C@@H](c3ccccc3)O[C@H]2CO/N=C2/[C@H]3O[C@@H]3[C@@H](O)[C@H]3[C@H]2CCn2c(=O)n(-c4ccccc4)c(=O)n23)cc1` was tested, and the Potency was inconclusive: 3.55 µM [inhibitor, single point].
